The source of these data is US10299477B2 (priority 2015, dated 2019).

The subject of assay [1] is Colletotrichum orbiculare. To be noted: 250 ppm spray (2.5 ml/pot), preventive; 6-10 days after inoculation; control value class.
The test system of assay [2] is Magnaporthe grisea. In kind it is in vivo. To be noted: 250 ppm spray, preventive; control value class.
Assay [3] deals with Phytophthora infestans. The assay is classed as in vivo. To be noted: 250 ppm spray (2.5 ml/pot), preventive; 5-10 days after inoculation; control value class.

On to `Cn1c(-c2c(F)cccc2F)c(-c2cc(O)ccc2Cl)ccc1=O` [Compound 235], for which the “Test H control value (anthracnose on cucumber)” value (from here on “Test H control value”) in assay [1] is given as “L (L shows 50% or less of control values)”. Also, in assay [2], the “Test A control value (blast on rice)” value is recorded as “H (H shows more than 50% of control values)”. Further, in assay [3], the “Test F control value (late blight on tomato)” value (“Test F control value” for short) was “L (L shows 50% or less of control values)”.

On to `COc1ccc(Cl)c(-c2cc(Br)c(=O)n(CC(F)F)c2-c2c(F)cccc2F)c1` [Compound 198, 3-bromo-5-(2-chloro-5-methoxyphenyl)-1-(2,2-difluoroethyl)-6-(2,6-difluorophenyl)pyridine-2(1H)-one], for which the “Test H control value” value in assay [1] was “H (H shows more than 50% of control values)”. For the same molecule, the “Test A control value (blast on rice)” value in assay [2] is “H (H shows more than 50% of control values)”. In addition, in assay [3], the “Test F control value” value is recorded as “L (L shows 50% or less of control values)”.

As for `CCN1C(=O)CCC(c2cccc(C)c2)=C1c1c(F)cccc1F` [Compound 207], the “Test H control value” value in assay [1] is given as “L (L shows 50% or less of control values)”. In assay [2], the “Test A control value (blast on rice)” value was “H (H shows more than 50% of control values)”. For the same molecule, the “Test F control value” value in assay [3] is recorded as “L (L shows 50% or less of control values)”.

Consider `Cn1c(-c2c(F)cccc2F)c(-c2cc(OCC3CCCC3)ccc2Cl)ccc1=O` [Compound 324], for which the “Test H control value” value in assay [1] was “L (L shows 50% or less of control values)”. Also, in assay [2], the “Test A control value (blast on rice)” value was “L (L shows 50% or less of control values)”. In addition, the “Test F control value” value in assay [3] is recorded as “L (L shows 50% or less of control values)”.

Consider `CCn1c(-c2c(F)cc(F)cc2F)c(-c2cc(Cl)ccc2Cl)cc(Cl)c1=O` [Compound 355], for which the “Test H control value” value in assay [1] is given as “H (H shows more than 50% of control values)”. Moreover, in assay [2], the “Test A control value (blast on rice)” value is recorded as “H (H shows more than 50% of control values)”. Further, the “Test F control value” value in assay [3] was “L (L shows 50% or less of control values)”.

With `Cn1c(-c2c(F)cccc2F)c(-c2cccc(Cl)c2)ccc1=O` [Compound 188], the “Test H control value” value in assay [1] was “L (L shows 50% or less of control values)”. Besides, the “Test A control value (blast on rice)” value in assay [2] is listed as “H (H shows more than 50% of control values)”. The “Test F control value” value in assay [3] is given as “L (L shows 50% or less of control values)”.

As for `CCn1c(-c2c(F)cccc2F)c(-c2ccc(Br)cc2)cc(Cl)c1=O` [Compound 294], in assay [1], the “Test H control value” value is reported as “L (L shows 50% or less of control values)”. Besides, the “Test A control value (blast on rice)” value in assay [2] is reported as “H (H shows more than 50% of control values)”. The “Test F control value” value in assay [3] was “L (L shows 50% or less of control values)”.

As for `CCN1C(=O)CCC(c2ccc(C)cc2)=C1c1c(F)cccc1F` [Compound 267], the “Test H control value” value in assay [1] was “L (L shows 50% or less of control values)”. The “Test A control value (blast on rice)” value in assay [2] is on record as “H (H shows more than 50% of control values)”. The “Test F control value” value in assay [3] was “L (L shows 50% or less of control values)”.

As to `Cn1c(-c2c(F)cccc2F)c(-c2ccc(Cl)cc2)cc(Br)c1=O` [Compound 286], the “Test H control value” value in assay [1] is “L (L shows 50% or less of control values)”. For the same molecule, the “Test A control value (blast on rice)” value in assay [2] was “H (H shows more than 50% of control values)”. Further, the “Test F control value” value in assay [3] is on record as “L (L shows 50% or less of control values)”.

Consider `CCOC(=O)COc1ccc(Cl)c(-c2ccc(=O)n(C)c2-c2c(F)cccc2F)c1` [Compound 308], for which, in assay [1], the “Test H control value” value is listed as “L (L shows 50% or less of control values)”. Moreover, in assay [2], the “Test A control value (blast on rice)” value was “L (L shows 50% or less of control values)”. For the same molecule, the “Test F control value” value in assay [3] was “L (L shows 50% or less of control values)”.

Turning to `CCN1C(=O)CCC(c2cc(OC)cc(OC)c2)=C1c1ccccc1F` [Compound 225], the “Test H control value” value in assay [1] was “L (L shows 50% or less of control values)”. In assay [2], the “Test A control value (blast on rice)” value is on record as “H (H shows more than 50% of control values)”. The “Test F control value” value in assay [3] is “L (L shows 50% or less of control values)”.

As to `COCCOCOc1ccc(Cl)c(-c2ccc(=O)n(C)c2-c2c(F)cccc2F)c1` [Compound 331], the “Test H control value” value in assay [1] is on record as “H (H shows more than 50% of control values)”. Also, in assay [2], the “Test A control value (blast on rice)” value was “H (H shows more than 50% of control values)”. Moreover, the “Test F control value” value in assay [3] is “H (H shows more than 50% of control values)”.

For the molecule `CCn1c(-c2c(F)cc(Br)cc2F)c(-c2cc(OC)cc(OC)c2)ccc1=O` [Compound 199], the “Test H control value” value in assay [1] was “H (H shows more than 50% of control values)”. In addition, the “Test A control value (blast on rice)” value in assay [2] is “H (H shows more than 50% of control values)”. Further, the “Test F control value” value in assay [3] was “L (L shows 50% or less of control values)”.

With `CCn1c(-c2c(F)cccc2F)c(-c2cccc(OC(F)(F)F)c2)cc(Cl)c1=O` [Compound 218], in assay [1], the “Test H control value” value is on record as “L (L shows 50% or less of control values)”. Besides, the “Test A control value (blast on rice)” value in assay [2] is “H (H shows more than 50% of control values)”. Also, in assay [3], the “Test F control value” value was “L (L shows 50% or less of control values)”.

In the case of `COc1cc(-c2ccc(=O)n(C)c2-c2c(F)cc(Br)cc2F)cc(OC)c1Cl` [Compound 206], the “Test H control value” value in assay [1] is recorded as “H (H shows more than 50% of control values)”. In assay [2], the “Test A control value (blast on rice)” value is recorded as “H (H shows more than 50% of control values)”. In addition, the “Test F control value” value in assay [3] is given as “L (L shows 50% or less of control values)”.

On to `CCn1c(-c2c(F)cc(Br)cc2F)c(-c2cc(OC)cc(OC)c2Br)ccc1=O` [Compound 200], for which, in assay [1], the “Test H control value” value was “H (H shows more than 50% of control values)”. For the same molecule, the “Test A control value (blast on rice)” value in assay [2] is on record as “H (H shows more than 50% of control values)”. Moreover, the “Test F control value” value in assay [3] is “H (H shows more than 50% of control values)”.

As to `CCn1c(-c2c(F)cccc2F)c(-c2cc(OCOCCOC)ccc2Cl)ccc1=O` [Compound 330], the “Test H control value” value in assay [1] is “H (H shows more than 50% of control values)”. Moreover, the “Test A control value (blast on rice)” value in assay [2] is “H (H shows more than 50% of control values)”. In addition, the “Test F control value” value in assay [3] is listed as “H (H shows more than 50% of control values)”.

Regarding `COC(=O)Oc1ccc(Cl)c(-c2ccc(=O)n(C)c2-c2c(F)cccc2F)c1` [Compound 298], the “Test H control value” value in assay [1] was “H (H shows more than 50% of control values)”. Also, the “Test A control value (blast on rice)” value in assay [2] is reported as “H (H shows more than 50% of control values)”. Besides, the “Test F control value” value in assay [3] was “L (L shows 50% or less of control values)”.

`COc1cc(OC)c(Cl)c(-c2ccc(=O)n(C)c2-c2c(F)cc(OCC(F)F)cc2F)c1` [Compound 338]: the “Test H control value” value in assay [1] is “H (H shows more than 50% of control values)”. Moreover, in assay [2], the “Test A control value (blast on rice)” value is reported as “H (H shows more than 50% of control values)”. In addition, the “Test F control value” value in assay [3] is on record as “H (H shows more than 50% of control values)”.

With `COc1cc(OC)c(Cl)c(-c2ccc(=O)n(CC(F)F)c2-c2c(F)cc(F)cc2F)c1` [Compound 343], the “Test H control value” value in assay [1] is listed as “H (H shows more than 50% of control values)”. Also, the “Test A control value (blast on rice)” value in assay [2] was “H (H shows more than 50% of control values)”. Moreover, the “Test F control value” value in assay [3] was “H (H shows more than 50% of control values)”.

As to `C#Cc1cc(-c2cc(OC)ccc2Cl)c(-c2c(F)cccc2F)n(CC)c1=O` [Compound 351], the “Test H control value” value in assay [1] is recorded as “H (H shows more than 50% of control values)”. Moreover, the “Test A control value (blast on rice)” value in assay [2] is recorded as “H (H shows more than 50% of control values)”. Besides, the “Test F control value” value in assay [3] was “L (L shows 50% or less of control values)”.

Take `CCn1c(-c2c(F)cccc2F)c(-c2cc(OCC(C)=O)ccc2Cl)ccc1=O` [Compound 303]: the “Test H control value” value in assay [1] is reported as “H (H shows more than 50% of control values)”. In addition, the “Test A control value (blast on rice)” value in assay [2] is listed as “H (H shows more than 50% of control values)”. Besides, the “Test F control value” value in assay [3] is on record as “L (L shows 50% or less of control values)”.

In the case of `COc1cc(OC)c(Cl)c(-c2ccc(=O)n(CC(F)(F)F)c2-c2c(F)cccc2F)c1` [Compound 335], in assay [1], the “Test H control value” value was “H (H shows more than 50% of control values)”. Further, the “Test A control value (blast on rice)” value in assay [2] is “H (H shows more than 50% of control values)”. Further, the “Test F control value” value in assay [3] was “L (L shows 50% or less of control values)”.

For `CCn1c(-c2c(F)cccc2F)c(-c2cccc(C)c2)cc(Cl)c1=O` [Compound 220], the “Test H control value” value in assay [1] is “L (L shows 50% or less of control values)”. In addition, in assay [2], the “Test A control value (blast on rice)” value is listed as “H (H shows more than 50% of control values)”. The “Test F control value” value in assay [3] was “L (L shows 50% or less of control values)”.

`COc1cc(OC)c(Cl)c(-c2ccc(=O)n(C)c2-c2c(F)cc(Br)cc2F)c1` [Compound 205]: the “Test H control value” value in assay [1] is reported as “H (H shows more than 50% of control values)”. For the same molecule, in assay [2], the “Test A control value (blast on rice)” value was “H (H shows more than 50% of control values)”. Moreover, the “Test F control value” value in assay [3] is “H (H shows more than 50% of control values)”.

With `CCn1c(-c2c(F)cccc2F)c(-c2ccccc2SC)ccc1=O` [Compound 209], the “Test H control value” value in assay [1] was “L (L shows 50% or less of control values)”. In assay [2], the “Test A control value (blast on rice)” value is listed as “H (H shows more than 50% of control values)”. Also, the “Test F control value” value in assay [3] is reported as “L (L shows 50% or less of control values)”.

Turning to `CCCCOc1ccc(Cl)c(-c2ccc(=O)n(CC)c2-c2c(F)cccc2F)c1` [Compound 252], in assay [1], the “Test H control value” value is recorded as “H (H shows more than 50% of control values)”. Also, the “Test A control value (blast on rice)” value in assay [2] was “H (H shows more than 50% of control values)”. Moreover, the “Test F control value” value in assay [3] was “L (L shows 50% or less of control values)”.
